Measured values taken from publication PMC12040169 (PLOS Biology, 2025).
Some of the results follow.

The compounds below were run on T1, C. trachomatis L2/434/Bu expressing GFP (CTL2-GFP). Conditions: total inclusion area; 28.5 h, 10 µM; inhibitor.
T1 construct: L2/434/Bu GFP intracellular growth in HeLa cells
Parameters: species or system HeLa; C. trachomatis total inclusion area by high-content imaging, normalised to DMSO
How it was run: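 High-content images of fixed, Hoechst-stained infected cultures supply inclusion area and count (growth) plus nuclei number (viability), complementing bulk GFP/resorufin fluorescence. MIC determination is unchanged from the primary assay.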

SMILES | % of control remaining
O=C(CC1Sc2ccc(Cl)cc2NC1=O)Nc1ccc([N+](=O)[O-])cc1 (stereo not shown) [CBK264860] | 125.907
CC(/C=C1\SC(=S)N(CCC(=O)Nc2ccc(O)c(C(=O)O)c2)C1=O)=C\c1ccccc1 [CBK263875] | 95.785
O=C(C1CCCC1)N1CCC(n2nc(-c3cccs3)oc2=O)CC1 [CBK282424] | 106.127
CC(=O)NCC1CC(c2ccc(C3=CCN(C(C)=O)CC3)cc2)=NO1 (stereo not shown) [CBK010245] | 71.7051
CN1C(/C=N/O)=C(O)c2ccccc2S1(=O)=O [CBK010098] | 65.7907
Oc1ccc2cc(-c3ccc(OC(F)(F)F)cc3)cnc2n1 [CBK081300] | 23.6281
CN(C)CCNC(=O)c1ccc(COc2ccc(Cl)cc2Cl)cc1 [CBK265878] | 67.5807
Cn1ncc2c(NCCN3CCOC3=O)nc(C(C)(C)C)nc21 [CBK307511] | 62.9969
O=C(O)Cc1sc(NCCN2CCOCC2)nc1-c1ccccc1 [CBK200113T] | 103.73
CCCCCC1=NN(C(=O)c2ccccc2Br)C(O)(C(F)(F)F)C1 (stereo not shown) [CBK027223] | 93.2813
CCCc1n[nH]c(=S)n1CC(=O)NCc1ccc(Oc2cc(C)ccc2C)nc1 [CBK297742] | 113.34
Cc1ccc(CN(Cc2[nH]cnc2C)C2CC(C)(C)NC(C)(C)C2)o1 [CBK283176] | 91.874
O=C(CN1CCN(CC(=O)NC2CC2)CC1)Nc1cc(Cl)ccc1Cl [CBK306091] | 50.5891
O=C(/C=C/c1cn(C2CC(O)C(CO)O2)c(=O)[nH]c1=O)NCCCCCCNC(=O)C(F)(F)F (stereo not shown) [CBK201310] | 98.0764
Cn1c(=O)c2c(nc(NCc3ccccc3)n2C)n(C)c1=O [CBK139872] | 71.4862
O=C(O)C1CCCCC1C(=O)NCCCN1CCOCC1 (stereo not shown) [CBK286903] | 50.0468
COc1ccc(-c2nc3c(n2O)CCc2c-3no[n+]2[O-])cc1OC [CBK262350] | 98.023
Cc1ccc(-c2ccccc2CC2(C(=O)O)CCN(Cc3ccccc3F)CC2)c(C)c1 [CBK286418] | 87.6344
O=C(Cn1nnc2ccccc2c1=O)NC1CCN2CCCCC12 (stereo not shown) [CBK305589] | 98.0541
Cn1c(=O)c2c(nc(CN3CCOCC3)n2CC(=O)c2ccccc2)n(C)c1=O [CBK269195] | 119.805

SMILES | % of control remaining
CC(C)[C@@H](CO)Nc1cncc(-c2cccc(Cl)c2)n1 [CBK037261] | 101.223
NC(=O)C1CCN(CC(=O)Nc2ccc([N+](=O)[O-])cc2C(=O)c2ccccc2)CC1 [CBK265782] | 118.968
COc1ccc(C2CCN(C(=O)C3CCCO3)CC2)cc1 (stereo not shown) [CBK285473] | 83.6011
Cc1ccc2cc(S(=O)(=O)Nc3cccc(C(=O)O)c3)ccc2c1 [CBK299812] | 81.8648
Cc1nc(COc2ccc(Cl)cc2)sc1C(=O)N1CCC1 [CBK306353] | 27.2402
COC(=O)CCc1ccc(S(=O)(=O)N2CCCN(Cc3cc(Cl)cc(Cl)c3)CC2)cc1 [CBK062982] | 70.7123
CC1CCc2c(sc(NC(=O)c3cccs3)c2C#N)C1 (stereo not shown) [CBK304625] | 83.1087
CC(C)NC(=O)c1cc(C2CCN(C(=O)CCCc3ccc(F)cc3)C2)nc2ccccc12 (stereo not shown) [CBK285921] | 111.369
O=C(CSc1n[nH]c(=S)s1)NCCc1ccccc1 [CBK023445] | 74.8979
O=C(/C=C/c1c[nH]c2ccccc12)c1ccc(C(=O)/C=C/c2c[nH]c3ccccc23)cc1 [CBK264224] | 113.523
Cc1ccc(-c2cc(C(=O)NCc3ccc(-c4ccc(C(N)=O)c(C)n4)cc3)no2)cc1 [CBK285644] | 92.0829
O=C(CCN1CCN(C(c2ccccc2)c2ccccc2)CC1)c1ccccc1 [CBK074788] | 98.8082
COCCn1c(CO)nnc1[C@H]1C[C@@H](NC(=O)c2ccc(C)cc2F)C1 [CBK307296] | 87.2593
Cc1cc(C)n(CC(C)CNC(=O)Cc2csc(-c3ccco3)n2)n1 (stereo not shown) [CBK305628] | 66.7952
O=C(NCc1cccnc1)C(=O)Nc1ccc(F)cc1F [CBK269481] | 80.26
CCC(C)NC(=O)Cn1cccc2cc(C3CCCNC3)nc1-2 (stereo not shown) [CBK285087] | 102.515
CCn1ncc(CN2CCCC(CCC(=O)N3CCN(C)CC3)C2)c1C (stereo not shown) [CBK306951] | 81.0796
O=C(Nc1cccc(CCc2ccccn2)c1)Nc1cccc2ccccc12 [CBK262337] | 100.865
CN(C)c1ccc(-n2ccn(S(=O)(=O)c3ccc(Oc4ccccc4)cc3)c2=O)cc1 [CBK106608] | 118.292
CN(Cc1ccc(O)cc1)C(=O)NC1CCCc2c1cnn2CCO (stereo not shown) [CBK305354] | 76.6398
